# The whole screen tested about 310,000 compounds, of which about 14,000 (4.5%) showed an effect of 50% or more. Effects have a minus sign here. The list shows a part of the results.
# Target: human ether-à-go-go-related gene (hERG) potassium channel (human, UniProt Q12809)
# Experiment: primary screen, population patch clamp on CHO cells stably expressing hERG
# 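Also: peak tail current of the secondary pulse compared with the same well before compound.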
# human ether-à-go-go-related gene (hERG) potassium channel, sequence (Q12809 whole entry, looked up): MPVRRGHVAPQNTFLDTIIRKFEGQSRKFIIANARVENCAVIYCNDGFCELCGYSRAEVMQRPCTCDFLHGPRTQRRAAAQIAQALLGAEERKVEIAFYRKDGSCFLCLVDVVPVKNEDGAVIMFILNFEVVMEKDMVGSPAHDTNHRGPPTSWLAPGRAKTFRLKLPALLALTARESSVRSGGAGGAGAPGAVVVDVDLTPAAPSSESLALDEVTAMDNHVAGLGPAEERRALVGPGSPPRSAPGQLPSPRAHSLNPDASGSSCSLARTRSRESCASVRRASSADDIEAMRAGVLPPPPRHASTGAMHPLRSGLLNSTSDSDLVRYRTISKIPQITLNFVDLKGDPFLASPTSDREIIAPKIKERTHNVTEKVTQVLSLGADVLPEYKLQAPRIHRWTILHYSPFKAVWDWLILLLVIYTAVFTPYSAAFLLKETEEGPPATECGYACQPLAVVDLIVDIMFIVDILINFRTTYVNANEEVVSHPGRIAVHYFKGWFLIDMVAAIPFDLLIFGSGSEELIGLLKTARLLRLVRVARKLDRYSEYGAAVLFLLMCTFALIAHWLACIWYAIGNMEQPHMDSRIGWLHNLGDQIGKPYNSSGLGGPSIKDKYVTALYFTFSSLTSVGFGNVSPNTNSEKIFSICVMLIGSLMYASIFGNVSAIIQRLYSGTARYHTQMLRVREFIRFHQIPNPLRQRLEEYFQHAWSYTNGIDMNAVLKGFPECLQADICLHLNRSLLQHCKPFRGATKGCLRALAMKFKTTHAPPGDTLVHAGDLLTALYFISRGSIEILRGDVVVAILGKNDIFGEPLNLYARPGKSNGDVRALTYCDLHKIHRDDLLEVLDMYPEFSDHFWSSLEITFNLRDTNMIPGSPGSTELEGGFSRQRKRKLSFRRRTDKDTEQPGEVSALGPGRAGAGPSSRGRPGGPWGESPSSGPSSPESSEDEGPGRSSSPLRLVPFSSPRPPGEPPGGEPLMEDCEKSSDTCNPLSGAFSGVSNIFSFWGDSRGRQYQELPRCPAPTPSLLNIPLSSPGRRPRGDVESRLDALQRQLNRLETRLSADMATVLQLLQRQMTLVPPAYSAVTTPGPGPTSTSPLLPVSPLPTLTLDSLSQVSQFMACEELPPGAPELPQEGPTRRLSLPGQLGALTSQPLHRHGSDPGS
row,Structure (SMILES),"hERG current change (%, negative = inhibition) at 10uM"
1,Cc1ccc(C(=O)N(C)CC(=O)Nc2ccc(N3CCOCC3)cc2)s1,-11.6%
2,CCc1ccccc1NC(=S)NCC1CCN(c2ccc(OC)cc2)C1 (stereo not shown),-7.36%
3,Cc1cc(NC(=O)CSc2nc3c(C)cccc3cc2C#N)no1,16.9%
4,COc1ccc(-n2c(Cc3cccn3C)nnc2SCC(=O)NCc2ccc(F)cc2)cc1,-30.1%
5,C[C@]12CC[C@@H](O)C[C@@H]1CC[C@@H]1[C@@H]2CC[C@]2(C)[C@@H](O)CC[C@@H]12,19.8%
6,COc1cccc2sc(N(CCCN(C)C)C(=O)CCS(=O)(=O)c3ccccc3)nc12,-62.7%
7,COc1ccc(C(=O)N2CCOCC2)cc1S(=O)(=O)N1CCC(C)CC1,-9.4%
8,CC(C)(C)NC(=O)NC(=O)COC(=O)c1ccc2c(c1)S(=O)(=O)N=C1CCCCCN12,18.9%
9,CCOCCCNC(=O)C(NC(=O)c1ccc2c(c1)OCO2)c1ccc(OC)cc1 (stereo not shown),-11.6%
10,CC(C)N(Cc1nc(-c2ccccc2)no1)C(=O)C1CCCCC1,-12.1%
11,Cc1c(C)c2ccc(OC(C)C(=O)NC3CC(C)(C)NC(C)(C)C3)cc2oc1=O (stereo not shown),7.7%
12,Cc1ccc(S(=O)(=O)N(CC(O)CN2CCCC2)c2ccccc2)cc1 (stereo not shown),-62.2%
13,O=C(O)C(=O)O.O=C1CN(C(=O)CNCc2cccc(Cl)c2)c2ccccc2N1,11.2%
14,Cc1noc(C)c1S(=O)(=O)N1CCCC(C(=O)Nc2cccnc2)C1 (stereo not shown),2.51%
15,O=C(COC(=O)c1ccc(O)cc1O)NCCN1C(=O)CSC1=O,11.9%
16,COc1ccccc1NS(=O)(=O)c1ccc(C(=O)N2CCN(c3ccccc3)CC2)cc1,-16.9%
17,Cc1ccc(C(=O)OCC(=O)NCc2cc(C)c(O)c(C)c2)cc1S(=O)(=O)N1CCCCC1,-28.2%
18,COC(=O)c1cccc(NC(=O)c2ccc[n+]([O-])c2)c1,21.7%
19,O=C(O)c1cccc(-c2ccc3c(c2)OCO3)c1,17.4%
20,CC(C(=O)NN=C(c1ccccc1)c1ccccc1)N1CCOCC1 (stereo not shown),-12.8%
21,C=CCOc1ccc(Br)cc1CNCC.Cl,-10.5%
22,O=C(Nc1ccc(Br)cn1)c1cccc(-c2cc3ccccc3oc2=O)c1,17.3%
23,CC(=O)Nc1ccc(S(=O)(=O)NCCC(=O)OCC(=O)c2ccc(Br)cc2)cc1,-12.6%
24,Cl.c1ccc(Cc2ccc(OCCn3ccnc3)cc2)cc1,-29.5%
25,CC(CNC(=O)CCc1nnc2ccc(N3CCC4(CC3)OCCO4)nn12)c1ccccc1 (stereo not shown),-0.296%
26,COc1ccccc1CNC(=O)c1cc(C2CC2)nc2c1cnn2C(C)C,-15.9%
27,N#Cc1c(C(F)(F)F)cc(-c2ccccc2)nc1SCC(=O)N1CCOCC1,-8.28%
28,CCOC(=O)c1[nH]c2ccccc2c1NC(=O)CC(C)C,5.72%

row,Structure (SMILES),"hERG current change (%, negative = inhibition) at 10uM"
1,CCN1C(=O)C(=Cc2c(C)n(CC(=O)NCC3CCCO3)c3ccccc23)C(=O)N(CC)C1=S (stereo not shown),27.5%
2,CCN(Cc1ccccc1)Cc1cc(OC)cc(OC)c1,-33%
3,O=C1C2CC=C(Cl)CC2C(=O)N1CCCCCCN1C(=O)C2CC=C(Cl)CC2C1=O (stereo not shown),-38.9%
4,CC(C(=O)N1CCOCC1)N1c2cccc3cccc(c23)S1(=O)=O (stereo not shown),0.223%
5,C=CCn1c(N2CCN(c3ccc(OC)cc3)CC2)nc2c1c(=O)[nH]c(=O)n2C,-24.6%
6,Cn1c(C(C#N)C(=O)c2sc3ccccc3c2Cl)nc2ccccc21 (stereo not shown),7.05%
7,Cc1ccc(CNc2oc(COc3ccccc3Cl)nc2C#N)cc1,13.2%
8,Cn1c(C(=O)O)c(CC(=O)Nc2ccc(F)cc2F)c2ccccc21,-1.51%
9,O=C(Nc1ccc(Oc2ncccn2)cc1)c1ccco1,11.7%
10,COc1ccc2c(c1)[C@H]1[C@H](CO2)[C@H](c2ccccc2)[C@]2(C)C(=O)N[C@H](C)C(=O)N12,6.48%
11,O=c1cc2[nH]c3ccccc3c(=O)n2nc1-c1ccccc1,9.65%
12,c1ccc2c(N3CCCCCC3)nc(-c3ccncc3)nc2c1,-34.5%
13,CCOC(=O)c1c(C)[nH]c(C)c1S(=O)(=O)NCC1CCN(Cc2cccc(Cl)c2)CC1,-20.5%
14,COCCCNC(NC(=O)c1ccc(OC)cc1)C(Cl)(Cl)Cl (stereo not shown),2.33%
15,O=C(CN(c1ccccc1)S(=O)(=O)c1ccccc1)N1CCOCC1,4.9%
16,CCN1C(=O)[C@H]2[C@@H](c3ccc(OC)cc3)N3C(=O)CN(CCOC)C(=O)[C@@]3(C)[C@H]2C1=O,-2.75%
17,Cc1cc(C)c(C#N)c(SCC(=O)C(C)(C)C)n1,-13.8%
18,COC(=O)c1c2c(nc3ccccc13)CCC2,-3.81%
19,N#Cc1ccsc1NC(=O)CSc1nnc(-c2ccccc2)o1,2.98%
20,Cc1cc2c3c(c1)C1(C(=O)N3C(C)(C)CC2C)C(C#N)=C(N)Oc2cc(O)ccc21 (stereo not shown),11.1%
21,O=C(Cn1cc(SCc2ccc(Cl)cc2)c2ccccc21)N1CCOCC1,-53.3%
22,Cc1ccccc1CNc1nc(N)n(-c2ccccc2)n1.Cl,-14.8%
23,COCCCNC(=O)c1ccc(CS(=O)(=O)c2ccc(OC)cc2)o1,5.86%
24,CCOc1cc(C(=S)N2CCOCC2)ccc1OC(=O)c1ccccc1,12.9%
25,Cc1ccc(O)c(N=CC2=C(O)c3ccccc3C2=O)c1,30.6%
26,CC1(C)CC(=O)C2=C(C1)Nc1[nH]c(=S)[nH]c(=O)c1C2c1ccccc1 (stereo not shown),19.4%
27,CCN(Cc1ccc2c(c1)OCCO2)C(=O)CN1C(=O)NC2(CCc3ccccc32)C1=O (stereo not shown),-2.44%

# Reference: article PMC4336329 (PLoS ONE, 2015)
